Measurements reported in PubChem BioAssay AID488969 (Vanderbilt High Throughput Screening Facility, 2010).
The full ranking holds about 110,000 compounds; the median of “z-score” is about -0.1, and the highest 2% start at about 2. The list shows a part of the results.

What follows are compounds tested against Metabotropic glutamate receptor 8 (Rattus norvegicus) (UniProt P70579) (assay: mGluR8 Gi/Go-coupled signaling modulation – cell-based, rat, thallium flux, HTS, primary screen (AID 488969)). Details: HEK293 rat mGluR8, GIRK (G protein-gated inwardly rectifying potassium channel) thallium flux, FluoZin2; at 10 µM; stronger effect = higher value; submaximal glutamate (EC20) added with thallium.
Sequence of UniProt P70579 (P70579 whole entry, looked up): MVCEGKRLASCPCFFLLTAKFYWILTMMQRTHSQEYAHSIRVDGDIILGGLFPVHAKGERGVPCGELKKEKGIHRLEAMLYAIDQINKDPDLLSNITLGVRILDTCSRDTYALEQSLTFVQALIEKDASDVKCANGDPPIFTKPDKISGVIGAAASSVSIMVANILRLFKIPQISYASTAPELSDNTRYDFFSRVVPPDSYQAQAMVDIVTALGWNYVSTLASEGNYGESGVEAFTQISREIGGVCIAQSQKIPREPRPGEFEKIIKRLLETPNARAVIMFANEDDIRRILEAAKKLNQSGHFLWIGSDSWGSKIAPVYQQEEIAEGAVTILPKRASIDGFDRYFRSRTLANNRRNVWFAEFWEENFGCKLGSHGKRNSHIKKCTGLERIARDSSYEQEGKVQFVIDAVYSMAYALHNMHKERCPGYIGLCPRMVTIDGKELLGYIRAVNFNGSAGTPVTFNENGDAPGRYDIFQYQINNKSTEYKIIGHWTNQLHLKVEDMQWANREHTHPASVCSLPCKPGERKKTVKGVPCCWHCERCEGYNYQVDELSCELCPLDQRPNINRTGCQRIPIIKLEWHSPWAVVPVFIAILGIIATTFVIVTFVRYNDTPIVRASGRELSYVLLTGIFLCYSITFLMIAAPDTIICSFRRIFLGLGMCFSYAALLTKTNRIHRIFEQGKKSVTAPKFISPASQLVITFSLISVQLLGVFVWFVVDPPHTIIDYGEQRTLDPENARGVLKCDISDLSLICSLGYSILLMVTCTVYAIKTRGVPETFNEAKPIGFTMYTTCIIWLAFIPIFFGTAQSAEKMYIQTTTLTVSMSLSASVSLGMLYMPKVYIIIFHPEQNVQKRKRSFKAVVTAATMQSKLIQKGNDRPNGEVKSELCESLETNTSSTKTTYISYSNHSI
For `O=C(Cn1c(C(F)(F)F)nc2ccccc21)c1ccc(Cl)cc1`, the z-score was -0.0833. For `FC(F)(F)c1nnc2ccc(N3CCCC3)nn12`, the z-score was -0.343. Work on `Clc1ccc2ncc(-c3nnnn3-c3ccccc3)c(-c3ccccc3)c2c1` yielded a z-score of -0.259. `CN(C)C(CNC(=O)c1ccc(S(=O)(=O)NCc2ccco2)cc1)c1ccccc1` (stereo not given) was tested, and the z-score was 0.343. Compound `Cc1ccc(N2CCN(C(=O)c3ccccc3F)CC2)c(C)c1` has a z-score of -0.309. `O=C(Nc1ccccc1)c1nnsc1S(=O)c1ccc(Cl)cc1` (stereo not given) gave a z-score of -0.317. `CCOc1ccc2ncc(S(=O)(=O)c3ccccc3)c(N3CCC4(CC3)OCCO4)c2c1` showed a z-score of -0.472. Work on `C/C(=N\NC(=O)c1c[nH]c2ccccc12)c1ccc(C)o1` yielded a z-score of -0.582. Work on `O=[N+]([O-])c1cc(S(=O)(=O)N2CCCCC2)ccc1NCc1cccc(Cl)c1` yielded a z-score of 0.119. In the case of `COc1ccccc1CNC(=O)N[C@@H](Cc1ccccc1)C(=O)O`, the z-score is reported as -0.154. Work on `N#CC1=C(N)N=C(SCc2ccccc2)C(C(N)=O)C12CCCCC2` (stereo not given) yielded a z-score of -0.119. `N#Cc1c2n(c3c(=O)n(Cc4ccc(Cl)cc4)cnc13)CCCCC2` showed a z-score of -0.369. Work on `CCCCn1c(CCNC(=O)CC)nc2ccccc21` yielded a z-score of -0.38. For `O=C(OCc1ccccc1)c1cn(-c2ccccc2)nc1-c1ccncc1`, the z-score was -0.0669. With `Cc1cc(C(C)(C)C)oc1C(=O)N(CC(=O)NC1CCCC1)Cc1ccc(F)cc1` the z-score was 0.0113. For `O=C(COC(=O)c1ccccc1Br)NCc1ccccc1`, the z-score was -0.203. Compound `COc1cccc2cc(C(=O)C3=C(O)C(=O)N(CCCN4CCOCC4)C3c3ccncc3)oc12` (stereo not given) has a z-score of -0.186. Compound `Cc1ccc(-c2ccc(SCC(=O)N3CCCc4ccccc43)nn2)cc1` has a z-score of -0.114. `Cc1[nH]nc(N2CCCCC2)c1[N+](=O)[O-]` gave a z-score of 0.239. For `Cc1ccccc1NC(=O)c1cccc2nc3ccccc3nc12`, the z-score was -0.119. `CC(=O)c1cccc(S(=O)(=O)NCC(c2ccco2)N2CCCCC2)c1` (stereo not given) gave a z-score of -0.264. `C/C(=N/NS(=O)(=O)c1ccc(Cl)cc1)c1cccc(NC(=O)c2ccc(Cl)cc2Cl)c1` showed a z-score of -0.356. For `C=Cc1cccc(NC(=O)COc2ccccc2)c1`, the z-score was 0.261. `COc1cc(/C=N/NC(=O)c2cccnc2)ccc1OC(=O)c1ccc2c(c1)OCO2` was tested, and the z-score was -0.0927. `Cc1cccc(NC(=O)Cn2c(=O)n(Cc3ccccc3)c(=O)c3c(C)c(C)sc32)c1` showed a z-score of -0.345. For `CC(C)(C)c1nc2sc3c(c2c(=O)o1)CCCC3`, the z-score was 0.125. With `CCOc1ccccc1NC1=C(Cl)C(=O)N(c2ccccc2)C1=O` the z-score was -0.39. Compound `COc1ccc(O)c(/C=N/NC(=O)c2ccc(OCc3cccc(Br)c3)cc2)c1` has a z-score of -0.103. Compound `CC1CCCC(C)N1CCNC(=O)CCn1nc(-c2ccccc2)ccc1=O` (stereo not given) has a z-score of -0.341. `Oc1ccc(N=Cc2cc(Br)c(N3CCOCC3)o2)cc1` showed a z-score of -0.196. `Cc1ccc(-c2nc(-c3ccccc3)no2)c(Cl)c1` gave a z-score of 0.282. With `COc1ccc(C(=O)NCC(=O)n2nc(C)cc2C)cc1OC` the z-score was -0.382. In the case of `Cc1ccc(-n2ncc3c(=O)[nH]c(SC(C)C)nc32)cc1`, the z-score is reported as -0.689. In the case of `CCN(CC)S(=O)(=O)c1ccc2c(c1)nc(CCC(=O)OCC(=O)N1CCc3ccccc31)n2C`, the z-score is reported as -1.27. With `COc1ccc(C(C(=O)NC2CCCCC2)N(C(=O)c2sc(C)nc2C)c2ccc(OC)cc2)cc1` (stereo not given) the z-score was -0.78. Compound `O=C(NCSc1ccnc(SCNC(=O)c2ccc(F)cc2)n1)c1ccc(F)cc1` has a z-score of -0.116. `CN(C)C(CNc1nnnn1-c1ccccc1)c1ccco1` (stereo not given) showed a z-score of -2.3. For `Cc1cc(C)nc(NC(=O)CCCC(=O)O)c1`, the z-score was 0.294. In the case of `O=C(Nc1ccc(S(=O)(=O)Nc2cnc3ccccc3n2)cc1)c1ccc(Br)o1`, the z-score is reported as -0.111. In the case of `O=S(=O)(NC1c2cccc3cccc(c23)C1Sc1ncccn1)c1ccc(Cl)cc1` (stereo not given), the z-score is reported as -0.0393. Compound `O=C(/C=C/c1ccco1)NC(=S)Nc1cccc([N+](=O)[O-])c1` has a z-score of 0.192. `COc1ccccc1C(=O)N(Cc1nc(-c2ccc(Cl)cc2)no1)C(C)C` gave a z-score of 0.313. `Cc1ccc(NC(=O)c2c(Cl)n(C)c3ccccc23)cc1` showed a z-score of -0.377. With `CC(CCc1ccco1)NC(=O)Cn1ncc2c1-c1ccccc1OC2` (stereo not given) the z-score was -0.321. In the case of `COc1cccc(C(=O)CSc2nnnn2C2CCCCC2)c1`, the z-score is reported as -0.109. Compound `OCCN(Cc1ccccc1)Cc1cccc(F)c1` has a z-score of -0.464. In the case of `Cc1ccc(Cn2c(CN3CCOCC3)nc3c2c(=O)n(C)c(=O)n3C)cc1`, the z-score is reported as 0.276. Compound `O=C(Cn1c(=O)oc2ccccc21)NC(=O)NCc1ccccc1` has a z-score of -0.0542. Work on `CC(C)(C)c1ccc(COn2c(=O)c(-c3ccco3)[n+]([O-])c3ccccc32)cc1` yielded a z-score of -0.289. `O=C(COC(=O)c1cncc(Br)c1)NC1CC1` was tested, and the z-score was -0.0374. Work on `O=C1CCCc2ccccc2N1Cc1cccc(Cl)c1` yielded a z-score of -0.324. With `CCn1c(=O)cc(SCC(=O)N2CCOCC2)c2ccccc21` the z-score was -0.0136. With `CN1CCN(C(=O)c2ccccc2NC(=O)C(C)(C)C)CC1` the z-score was -0.356. Compound `COc1ccc(-c2cc(C(F)(F)F)n3ncc(C(=O)NCc4ccco4)c3n2)cc1` has a z-score of -0.0428. `Cc1nn(CC(=O)N(C)C)c(=O)c2ccccc12` gave a z-score of -0.39. In the case of `Cn1c(NCC(O)c2ccccc2)nc2c1c(=O)n(Cc1ccc(Cl)c(Cl)c1)c(=O)n2C` (stereo not given), the z-score is reported as -0.203. For `COC(=O)Cc1c(C)nc2nc(-c3ccccc3)[nH]n2c1=O`, the z-score was -0.455. `Nc1nc(C(=O)N2CCOCC2)nn1S(=O)(=O)c1ccc(Cl)cc1` was tested, and the z-score was 0.299. `O=C(OC1CCOC1=O)c1ccc(-c2nc3ccccc3s2)s1` (stereo not given) showed a z-score of -0.0104. `Cc1nn(C)cc1CNC(=O)c1ccc(Br)o1` gave a z-score of 0.842. In the case of `CCC(=O)NC1(C(F)(F)F)C(=O)NC(C)=C1C#N` (stereo not given), the z-score is reported as -0.261. With `COCCCn1c(-c2ccco2)nc2ccccc2c1=O` the z-score was 1.93. `CCc1ccc(C(=O)COC(=O)c2cccs2)cc1` was tested, and the z-score was 0.161. `COC(=O)c1ccc(NC(=O)CSCC(=O)OCC(=O)c2ccc(Br)cc2)cc1` showed a z-score of 0.0299. Compound `CN(Cc1ccccc1)c1nc2c(c(=O)[nH]c(=O)n2C)n1CCSc1nc2ccccc2[nH]1` has a z-score of 0.103. Work on `CCOC(=O)CSc1ccc(-c2nc3ccccc3[nH]2)cn1` yielded a z-score of -0.14. `CC(C)(C)c1ccc(C(=O)NCc2cccnc2)cc1` gave a z-score of 0.116. Work on `Cc1ccc2cccc(NC(=S)NC(=O)c3ccnn3C)c2n1` yielded a z-score of 2.25. For `COc1ccc(C2C(C#N)=C(/N=C/N3CCN(C)CC3)OC3=C2C(=O)CC(C)(C)C3)cc1` (stereo not given), the z-score was 0.796. For `Cc1ccc(S(=O)(=O)Oc2ccc(/C=N/NC(=O)c3c(Cl)cnn3C)cc2)cc1`, the z-score was 1.89.
